# Data reported in a collection of fitness landscapes (doi:10.1038/s41467-024-54723-y).
# The full ranking holds about 18,000 sequences; the median of “TetR repression strength (sort-seq, GFP reporter)” is about 0.23, and the highest 2% start at about 0.68. The list shows a part of the results.
# Target: TetR (class B, Tn10) (UniProt P04483)
# Assay: TetR repression strength (sort-seq, GFP reporter) (relative to tetO2 = 1); higher = stronger repression
# Settings: E. coli
# In short: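 Escherichia coli SIG10-MAX cells carried a low-copy plasmid library in which eight operator positions were randomized between a constitutive promoter and sfGFP, and TetR was expressed constitutively. After 5 h of growth at 37 °C in LB with 50 µg/mL chloramphenicol, 10^6 cells were FACS-sorted into 13 fluorescence bins, and each bin was Illumina-sequenced. Repression strength was the top bin index plus one minus the read-weighted mean bin, divided by the value for the unaltered operator. Across three independent transformations, only library members with ≥30 reads in every replicate and a CV ≤0.5 were averaged.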
# Sequence of UniProt P04483 (P04483 whole entry): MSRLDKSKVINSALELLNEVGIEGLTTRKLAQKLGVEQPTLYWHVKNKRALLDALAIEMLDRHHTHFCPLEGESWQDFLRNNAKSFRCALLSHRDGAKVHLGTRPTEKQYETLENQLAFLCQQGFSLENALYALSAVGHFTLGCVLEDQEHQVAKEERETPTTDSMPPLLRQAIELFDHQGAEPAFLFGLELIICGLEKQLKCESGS
row,Sequence,TetR repression strength
1,TCCCCTGTAGTTGGCGAGA,0.196
2,TCCCCGGTAGTGGCAGAGA,0.182
3,TCCCAAAGAGTTAAGGAGA,0.124
4,TCCCGTTAAGTTGTTGAGA,0.181
5,TCCCTCGGAGTGGGAGAGA,0.217
6,TCCCCGATAGTTAGAGAGA,0.237
7,TCCCTCGGAGTTTAAGAGA,0.496
8,TCCCGGATAGTTTAGGAGA,0.295
9,TCCCGTGGAGTACTAGAGA,0.229
10,TCCCCGCTAGTGTGCGAGA,0.515
11,TCCCTTATAGTACGAGAGA,0.095
12,TCCCCGGGAGTGCTAGAGA,0.274
13,TCCCCTTGAGTAACGGAGA,0.272
14,TCCCGTCAAGTTGGCGAGA,0.138
15,TCCCTACCAGTGATTGAGA,0.511
16,TCCCTATGAGTGGATGAGA,0.315
17,TCCCTGGGAGTCGTGGAGA,0.229
18,TCCCTGGCAGTCTCAGAGA,0.404
19,TCCCGTCTAGTGCGTGAGA,0.0665
20,TCCCTGTAAGTAGGCGAGA,0.383
21,TCCCTAGAAGTTCATGAGA,0.00391
22,TCCCCGAGAGTGGATGAGA,0.136
23,TCCCGAACAGTCAAGGAGA,0.299
24,TCCCGTAAAGTAGGCGAGA,0.00592
25,TCCCAGGAAGTTTCGGAGA,0.175
26,TCCCTGGCAGTGCTTGAGA,0.325

row,Sequence,TetR repression strength
1,TCCCGGTGAGTCTGAGAGA,0.219
2,TCCCCGATAGTTGCGGAGA,0.203
3,TCCCGTGGAGTGTCCGAGA,0.821
4,TCCCCCCAAGTGCCCGAGA,0.452
5,TCCCGACGAGTAAGTGAGA,0.0202
6,TCCCGCAGAGTACTTGAGA,0.285
7,TCCCGGTGAGTCGTGGAGA,0.0614
8,TCCCTGTGAGTCCGCGAGA,0.207
9,TCCCGTCGAGTAGGGGAGA,0.127
10,TCCCGTAGAGTATGCGAGA,0.214
11,TCCCACCCAGTCGGAGAGA,0.207
12,TCCCGATGAGTGGTAGAGA,0.34
13,TCCCGATAAGTGGAGGAGA,0.262
14,TCCCGCACAGTAAGGGAGA,0.169
15,TCCCGTAAAGTCGGGGAGA,0.18
16,TCCCCACGAGTCCTCGAGA,0.471
17,TCCCGCGCAGTGGGAGAGA,0.474
18,TCCCCTAGAGTGGAGGAGA,0.411
19,TCCCGTGGAGTATCTGAGA,0.119
20,TCCCTTGAAGTTTGCGAGA,0.292
21,TCCCCACGAGTGGTAGAGA,0.0708
22,TCCCGATAAGTGACAGAGA,0.631
23,TCCCAGAGAGTGGAGGAGA,0.189
24,TCCCCGGAAGTCGGCGAGA,0.242
25,TCCCGTGAAGTTGGGGAGA,0.159
26,TCCCCATTAGTGTTCGAGA,0.262

row,Sequence,TetR repression strength
1,TCCCTTCAAGTTTTGGAGA,0.327
2,TCCCGTCCAGTGTAGGAGA,0.0394
3,TCCCGAGGAGTCAGAGAGA,0.217
4,TCCCCATAAGTGGACGAGA,0.0617
5,TCCCCAGCAGTTGGTGAGA,0.35
6,TCCCGAAAAGTGTATGAGA,0.176
7,TCCCAGGCAGTTCGAGAGA,0.361
8,TCCCTTGGAGTTCGGGAGA,0.162
9,TCCCTCTAAGTTGATGAGA,0.795
10,TCCCGCCAAGTGGAGGAGA,0.229
11,TCCCTCAGAGTCGTCGAGA,0.248
12,TCCCGAGAAGTTGTAGAGA,0.246
13,TCCCCGCCAGTGAGCGAGA,0.222
14,TCCCGCCTAGTCGGGGAGA,0.416
15,TCCCCGAGAGTGGGGGAGA,0.113
16,TCCCAAGTAGTGGCAGAGA,0.359
17,TCCCTATTAGTGGTGGAGA,0.0415
18,TCCCTGGTAGTTGGGGAGA,0.205
19,TCCCTAGGAGTGCAAGAGA,0.482
20,TCCCTATGAGTCAAGGAGA,0.359
21,TCCCCGGGAGTACGGGAGA,0.135
22,TCCCAGAAAGTGGCAGAGA,0.535
23,TCCCGTCGAGTGTGCGAGA,0.338
24,TCCCAGACAGTATAAGAGA,0.233
25,TCCCACACAGTTATCGAGA,0.244
26,TCCCGTGGAGTCGAGGAGA,0.539

row,Sequence,TetR repression strength
1,TCCCGATCAGTCGGGGAGA,0.213
2,TCCCACGTAGTCCCGGAGA,0.207
3,TCCCCGATAGTGGGCGAGA,0.149
4,TCCCGATTAGTTCAAGAGA,0.438
5,TCCCGATAAGTCGGAGAGA,0.181
6,TCCCCCGGAGTGGCCGAGA,0.24
7,TCCCATAAAGTAAAAGAGA,0.365
8,TCCCAAAGAGTGCTGGAGA,0.172
9,TCCCGGACAGTACATGAGA,0.331
10,TCCCCTGGAGTAAGGGAGA,0.193
11,TCCCGTTCAGTTCAGGAGA,0.0302
12,TCCCGGCTAGTCGGGGAGA,0.204
13,TCCCGAGGAGTAGATGAGA,0.118
14,TCCCCGGGAGTACATGAGA,0.132
15,TCCCGCTAAGTTGGGGAGA,0.155
16,TCCCAGGCAGTGCCGGAGA,0.748
17,TCCCTGCTAGTAGTGGAGA,0.147
18,TCCCTGGGAGTGGCCGAGA,0.217
19,TCCCGGGGAGTGGTTGAGA,0.333
20,TCCCTTACAGTCCTGGAGA,0.471
21,TCCCCTGAAGTGCAAGAGA,0.354
22,TCCCGTCCAGTGCTTGAGA,0.915
23,TCCCTATCAGTTGAAGAGA,0.55
24,TCCCAAAAAGTGCTCGAGA,0.199
25,TCCCTCATAGTGTAAGAGA,0.205
26,TCCCCAGAAGTCGTCGAGA,0.223

row,Sequence,TetR repression strength
1,TCCCAGTTAGTGCGAGAGA,0.565
2,TCCCACTGAGTGCGGGAGA,0.426
3,TCCCATTTAGTTTGTGAGA,0.355
4,TCCCGAGTAGTAGACGAGA,0.326
5,TCCCAAGCAGTCATGGAGA,0.206
6,TCCCTGAGAGTAAAGGAGA,0.296
7,TCCCGATTAGTATGGGAGA,0.228
8,TCCCGAGGAGTTCGAGAGA,0.226
9,TCCCCATCAGTAAACGAGA,0.221
10,TCCCTCAGAGTTGAAGAGA,0.0503
11,TCCCCACTAGTTCACGAGA,0.422
12,TCCCGTCTAGTCCGCGAGA,0.402
13,TCCCCTCAAGTAAGTGAGA,0.116
14,TCCCCGTGAGTACACGAGA,0.255
15,TCCCTGCAAGTACTCGAGA,0.341
16,TCCCCTGTAGTGATAGAGA,0.387
17,TCCCATCGAGTGGGTGAGA,0.34
18,TCCCTAGCAGTCTTGGAGA,0.0869
19,TCCCTACTAGTGTGGGAGA,0.229
20,TCCCAGGCAGTTTCCGAGA,0.0123
21,TCCCTTGAAGTATGTGAGA,0
22,TCCCCGATAGTGGCAGAGA,0.506
23,TCCCTGAAAGTATTAGAGA,0.263
24,TCCCAGGGAGTCGTAGAGA,0.289
25,TCCCTCGTAGTGTGAGAGA,0.34
26,TCCCCAGCAGTGACGGAGA,0.286

row,Sequence,TetR repression strength
1,TCCCTGGCAGTCCACGAGA,0.156
2,TCCCAATTAGTCGATGAGA,0.51
3,TCCCTGAAAGTGTACGAGA,0.0109
4,TCCCGGGGAGTCCGCGAGA,0.228
5,TCCCCTTGAGTGTTTGAGA,0.302
6,TCCCGCGCAGTTGAGGAGA,0.251
7,TCCCGCATAGTACCTGAGA,0.562
8,TCCCTTAGAGTTGCTGAGA,0.584
9,TCCCCCATAGTCGACGAGA,0.825
10,TCCCTACGAGTGGTCGAGA,0.204
11,TCCCCCGGAGTCGAGGAGA,0.203
12,TCCCTATTAGTGAAGGAGA,0.273
13,TCCCACAGAGTACTAGAGA,0.422
14,TCCCACTAAGTGCCAGAGA,0.21
15,TCCCGTACAGTGGTCGAGA,0.162
16,TCCCGGTAAGTAGAGGAGA,0.171
17,TCCCGACTAGTGTGGGAGA,0.274
18,TCCCCCTGAGTGGTGGAGA,0.359
19,TCCCAGTTAGTGTTAGAGA,0.25
20,TCCCTAGGAGTGGGCGAGA,0.146
21,TCCCGCTGAGTACTCGAGA,0.5
22,TCCCCCAGAGTTCACGAGA,0.47
23,TCCCGGCCAGTTGCCGAGA,0.149
24,TCCCCCAAAGTGTTTGAGA,0.145
25,TCCCTGTGAGTGGGTGAGA,0.412
26,TCCCGGCCAGTGTCGGAGA,0.435

row,Sequence,TetR repression strength
1,TCCCCGCGAGTCGCCGAGA,0.254
2,TCCCGGCTAGTCGCTGAGA,0.165
3,TCCCCTATAGTATTAGAGA,0.126
4,TCCCGCAAAGTCCGTGAGA,0.113
5,TCCCCGGGAGTCGGGGAGA,0.356
6,TCCCAATAAGTGTATGAGA,0.207
7,TCCCGACAAGTGAGTGAGA,0.163
8,TCCCCCACAGTACGAGAGA,0.115
9,TCCCATATAGTAGCGGAGA,0.191
10,TCCCGGGTAGTGGCCGAGA,0.153
11,TCCCTCAGAGTGGGTGAGA,0.0984
12,TCCCGGCGAGTTGTAGAGA,0.425
13,TCCCAGATAGTCGCGGAGA,0.108
14,TCCCCTCGAGTTCGGGAGA,0.178
15,TCCCTTGCAGTCCGCGAGA,0.258
16,TCCCGCTTAGTACATGAGA,0.012
17,TCCCGCGGAGTTAGGGAGA,0.207
18,TCCCCGACAGTTGCGGAGA,0.0545
19,TCCCCGTTAGTTAGAGAGA,0.207
20,TCCCTGGGAGTCCGGGAGA,0.193
21,TCCCTACCAGTAAAAGAGA,0.273
22,TCCCCTGAAGTGGTAGAGA,0.393
23,TCCCGTCCAGTCTGAGAGA,0.152
24,TCCCTGTGAGTAAGCGAGA,0.178
25,TCCCCCCGAGTAGGGGAGA,0.138
26,TCCCATAAAGTGGGCGAGA,0.0878

row,Sequence,TetR repression strength
1,TCCCTTAGAGTGGTCGAGA,0.215
2,TCCCTTACAGTGCGTGAGA,0.183
3,TCCCGTGCAGTGCTGGAGA,0.282
4,TCCCGGTTAGTGAAAGAGA,0.285
5,TCCCTTTTAGTCAATGAGA,0.285
6,TCCCTGGAAGTGATCGAGA,0.203
7,TCCCAGGTAGTAAGGGAGA,0.249
8,TCCCGTGTAGTGAGTGAGA,0.225
9,TCCCCATCAGTTCACGAGA,0.274
10,TCCCGGGGAGTGCACGAGA,0.193
11,TCCCCAGTAGTGTGTGAGA,0.417
12,TCCCTAAGAGTGACTGAGA,0.612
13,TCCCGTACAGTAGTCGAGA,0.269
14,TCCCGTTGAGTTTACGAGA,0.207
15,TCCCGTCGAGTGGCCGAGA,0.389
16,TCCCGTTCAGTATCGGAGA,0.241
17,TCCCCGTTAGTACACGAGA,0.162
18,TCCCCCAGAGTAGTTGAGA,0.471
19,TCCCCTGGAGTTGGGGAGA,1.09
20,TCCCATGGAGTAGCGGAGA,0.297
21,TCCCGTTGAGTGTACGAGA,0.101
22,TCCCTCGAAGTTAGGGAGA,0.138
